Experimental data published in PubChem BioAssay AID2451 (National Center for Advancing Translational Sciences (NCATS), 2010).
Out of some 290,000 compounds screened, about 2,100 (0.72%) were called active. Inconclusive means that the source gave no clear call. Such entries were picked first, then a sample of the others. Calls come from the whole dose curve; as a rule, active = well fitted inhibition curve with a large enough effect; inconclusive = small, poorly fitted or top-dose-only effect, or effect the other way; inactive = flat fitted curve, though single readings scatter. A potency beside an inconclusive call is a rough fit, not a confirmed value.

Molecular target: Fructose-bisphosphate aldolase (Giardia intestinalis (strain ATCC 50803 / WB clone C6)) (UniProt A8B2U2)
Sequence of UniProt A8B2U2 (A8B2U2 whole entry, looked up): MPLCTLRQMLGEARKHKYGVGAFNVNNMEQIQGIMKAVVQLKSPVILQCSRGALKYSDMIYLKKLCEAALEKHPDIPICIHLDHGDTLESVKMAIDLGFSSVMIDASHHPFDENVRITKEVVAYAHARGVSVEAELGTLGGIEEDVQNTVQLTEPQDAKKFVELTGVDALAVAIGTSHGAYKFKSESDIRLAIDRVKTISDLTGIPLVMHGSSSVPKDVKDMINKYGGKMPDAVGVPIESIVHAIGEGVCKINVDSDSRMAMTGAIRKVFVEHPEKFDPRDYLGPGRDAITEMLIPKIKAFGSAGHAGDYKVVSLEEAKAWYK
Test: qHTS Assay for Inhibitors of Fructose-1,6-bisphosphate Aldolase from Giardia Lamblia; note: nearly all actives have a fitted effect of over 55% in size
Settings: purified Giardia FBPA; activity, negative = inhibition: at 59.6 µM (top of the series) unless noted
Procedure, shortened: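 Giardia FBPA (40 nM reagent) was preincubated 10 min at RT with compound (up to 57.5 uM final), then substrate plus GAPDH/TPI/NAD/arsenate coupling system with diaphorase/resazurin was added; resorufin fluorescence (525/598 nm) was read after 20 min.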
% is set by controls: 0 for no effect and ±100 for the full control effect; potency is the fitted concentration of half-maximal effect; tags give direction and shape of the fitted curve.

SMILES	Potency	activity, negative = inhibition
Cc1cccc(CN2CCCC(C(=O)c3ccc4c5c(cccc35)CC4)C2)n1 (stereo not given)	inactive	–
CC(=O)Nc1cccc(NC(=O)Cc2nc(-c3ccccc3)sc2-c2ccc(C)cc2)c1	inactive	–
COCCNC(=O)COC(=O)C1=Cc2ccccc2OC1	inactive	–
Oc1ccc(C2=CSC3=NCCN23)cc1O	inconclusive: 39.8 µM [inhibitor, single point]	–
Brc1ccc2ncnc(Nc3cccc4ccccc34)c2c1	inconclusive: 22.3 µM [inhibitor, single point]	–
c1ccc(COc2ccc(Nc3ncnc4nc[nH]c34)cc2)cc1	inactive	–
Cn1c(O)c(C(c2ccncc2)c2c(O)n(C)c(=S)n(C)c2=O)c(=O)n(C)c1=S	inactive	–
COc1cccc2c1cc([N+](=O)[O-])c1c(C(=O)O)cc3c(c12)OCO3	inconclusive: 22.3 µM [activator, partial curve]	–
O=C(NC(=S)N1CCCCC1)c1csc([N+](=O)[O-])c1	active: 12.6 µM	–
CS(=O)(=O)N(CC(=O)N/N=C/c1ccccn1)c1ccc(Oc2ccccc2)cc1	inconclusive: 35.4 µM [inhibitor, single point]	–
O=C(Nc1sc2c(c1C(=O)O)CCCCC2)c1ccccc1	inconclusive: 5 µM [inhibitor, single point]	–
CCn1c(=O)cc(SCC(=O)Nc2cccc(SC)c2)c2ccccc21	inconclusive: 17.7 µM [activator, single point]	–
COC(=O)CC1=C(C(=O)OC)C2(C(=O)Nc3c(C)cccc32)C(C#N)=C(N)O1 (stereo not given)	inconclusive: 9.98 µM [inhibitor, partial curve]	–
CN(c1ccc(C(=O)NCCc2ccccc2)cc1)S(C)(=O)=O	inactive	–
CCCc1cc(=O)n2[nH]c(C)c(-c3ccc(OC)cc3)c2n1	inconclusive: 7.08 µM [inhibitor, partial curve]	–
CCOC(=O)c1c(-c2ccc(C)s2)csc1N	inconclusive: 6.29 µM [inhibitor, partial curve]	–
Cc1ccc(OCCCCn2ccnc2)c([N+](=O)[O-])c1	inconclusive: 31.5 µM [inhibitor, single point]	–
COc1ccc(N2C(=O)/C(=C/c3ccc(OC)c(OC)c3)C(=O)NC2=S)cc1	inconclusive: 35.5 µM [inhibitor, single point]	–
COc1ccccc1COCC(O)CNCCc1ccc(C(F)(F)F)cc1 (stereo not given)	inconclusive: 14.1 µM [inhibitor, partial curve]	–
O=C(OCC(=O)N1CCN(S(=O)(=O)c2ccc(Cl)cc2)CC1)c1ccc([N+](=O)[O-])o1	inconclusive: 19.9 µM [inhibitor, partial curve]	–
O=C1N=c2ccccc2=C/C1=C\c1c(O)[nH]c(=S)[nH]c1=O	inconclusive: 22.3 µM [inhibitor, single point]	–
CC(/C=N/NC(=O)c1cc(-c2ccccc2)nc2ccccc12)=C\c1ccco1	inconclusive: 14.1 µM [inhibitor, partial curve]	–
COc1ccc(/C=N\NC(=O)c2ccccc2OC)cc1COc1c(F)c(F)c(F)c(F)c1F	inactive	–
COCCOC(=O)C1=C(C)OC(N)=C(C#N)C1c1cc2cccc(C)c2nc1Cl (stereo not given)	inconclusive: 22.3 µM [inhibitor, single point]	–
COc1ccc(O)c(N)c1	active: 3.54 µM	–

SMILES	Potency	activity, negative = inhibition
C=CCn1c(CNc2ccc(C)cc2)nnc1SCC(=O)N/N=C/c1ccc(O)cc1O	inconclusive: 3.97 µM [inhibitor, full curve]	–
O=c1nc(N/N=C/c2c[nH]c3ccccc23)cn[nH]1	active: 17.7 µM	–
Cc1ccc(C(=O)NC(=S)Nc2ccccc2C(F)(F)F)cc1	inactive	–
CCC1N=C(SC)NC(C)=C1C(=O)c1ccccc1 (stereo not given)	inactive	–
Cc1cnc(CNC(=O)c2ccc3oc(Cc4ccccc4)nc3c2)[nH]1	–	inconclusive: 20.6% [activator]
Cc1ccc(Cl)c(OCC(=O)Nc2cc(S(=O)(=O)N3CCOCC3)ccc2N2CCCC2)c1	inactive	–
COCCNc1nc(-c2ccc(N(C)C)cc2)nc2ccccc12	inconclusive: 14.1 µM [inhibitor, partial curve]	–
CN=c1scc(C)n1/N=C/c1ccc(O)c(O)c1O	active: 3.15 µM	–
COc1cc(/C=N/Nc2nc3ccccc3[nH]2)cc(Br)c1OCC(=O)N(C)C	inactive	–
C=CCC1(NCc2ccco2)CCN(CC)CC1	inconclusive: 7.06 µM [inhibitor, partial curve]	–
COc1cc(O)c(NC(C)=O)c2nonc12	inconclusive: 3.15 µM [inhibitor, full curve]	–
O=C(Nc1n[nH]c(=S)s1)c1ccco1	active: 7.08 µM	–
COc1ccc(N=Cc2cc3c(cc2O)OC(N)=C(C#N)C3c2ccccc2)cc1 (stereo not given)	inconclusive: 15.8 µM [inhibitor, partial curve]	–
COc1ccc(/C=N/O)cc1COc1ccc(NC(C)=O)cc1	inactive	–
CCNc1nc(NCC)nc(N(C)/N=C/c2ccco2)n1	inconclusive: 28.2 µM [inhibitor, single point]	–
CN(C)S(=O)(=O)c1ccc(N2CCCC2)c(C(=O)Nc2ccccc2OC(F)F)c1	inactive	–
CCCNC(=O)OC[C@@H]1O[C@H](CCO/N=C(\C)CCC(=O)OC[C@@H]2O[C@H](c3ccccc3)C=C[C@@H]2Oc2ccc(OC)cc2)C=C[C@@H]1Oc1ccc(OC)cc1	–	inactive: -0.741% [at 12.9 µM]
COc1cccc(C(=O)N2c3ccccc3Sc3ccccc32)c1	inconclusive: 15.8 µM [inhibitor, single point]	–
Clc1ccc(Cc2nc(-c3cccnc3)no2)cc1	inactive	–
Cc1ccc2nc(NC(=O)c3ccccn3)sc2c1	inconclusive: 15.8 µM [inhibitor, single point]	–
Cc1nc2c(ccc3nc(NC(=O)Cc4ccccc4)sc32)s1	inactive	–
CN(C)S(=O)(=O)c1cccc(NC(=O)CNCC2CCCCC2)c1	inconclusive: 9.98 µM [inhibitor, partial curve]	–
CCC(=O)NC1=C(Cl)C(=O)C(NC(=O)CC)=C(Cl)C1=O	active: 1.77 µM	–
N#CC(c1nc2ccccc2nc1N1CCCC1)S(=O)(=O)c1ccccc1 (stereo not given)	inconclusive: 7.92 µM [inhibitor, partial curve]	–
CCN(CC)c1ccc(S(=O)(=O)N2CCOCC2)cc1NC(=O)CN1CCN(Cc2ccccc2)CC1	active: 19.9 µM	–

SMILES	Potency	activity, negative = inhibition
c1ccc(C(c2ccccc2)N2CC3(CCNCC3)C2)cc1	inactive	–
CN(C)S(=O)(=O)c1cc(NC(=O)CNCc2ccc(F)cc2)ccc1Cl	inconclusive: 14.1 µM [inhibitor, partial curve]	–
CC1=CC(=O)CC(C)(C)C1(O)/C=C/C(C)=C\C(=O)O (stereo not given)	inactive	–
CCS(=O)(=O)Nc1ccc(-c2nc3cccnc3s2)cc1	inactive	–
CCCn1c(Nc2nc3ccccc3n2C)nc2ccccc21	inconclusive: 17.7 µM [inhibitor, single point]	–
CC(=O)c1ccc(-n2c(CCC(=O)O)ccc2-c2ccc(Cl)cc2)cc1	inactive	–
O=C(CSc1n[nH]c(-c2cccnc2)n1)Nc1ccccc1[N+](=O)[O-]	active: 25.1 µM	–
COc1ccc(OC)c(NC(=O)CSc2nc(-c3ccccc3)cc(=O)[nH]2)c1	inconclusive: 22.4 µM [inhibitor, single point]	–
O=C(OCc1ccc([N+](=O)[O-])cc1)c1cc(=O)c2ccccc2o1	inactive	–
N#CC(Sc1ccccn1)c1ccc(Cl)cc1 (stereo not given)	inconclusive: 22.3 µM [inhibitor, partial curve]	–
Cc1ccc(/C=N/n2c(-c3ccncc3)n[nH]c2=S)o1	inconclusive: 14.1 µM [inhibitor, partial curve]	–
O=C1/C(=C/c2ccc(O)c(O)c2)SC(=S)N1Nc1ccccc1	inconclusive: 44.6 µM [inhibitor, single point]	–
COc1cc(N=Nc2ccccc2C(=O)O)ccc1O	inconclusive: 15.8 µM [inhibitor, single point]	–
COc1ccc(/C=C2\SC(=S)N(CCCC(=O)N3CCN(C)CC3)C2=O)cc1	inactive	–
CCCc1cc(=O)[nH]c(SCC(=O)CSc2nc(CCC)cc(=O)[nH]2)n1	inconclusive: 15.8 µM [inhibitor, partial curve]	–
O=C(Nc1ccccc1)c1ccc(-c2ccc(F)cc2)s1	inactive	–
Cc1ccc(NC(=O)C2CCN(C(=O)NC3CCCCC3)CC2)cc1Cl	inactive	–
Brc1ccccc1CNCCc1ccc2c(c1)OCO2	inconclusive: 14.1 µM [inhibitor, partial curve]	–
COc1cc(C(=O)OC(C)CN2CCCCC2)cc(OC)c1OC (stereo not given)	inconclusive: 20 µM [inhibitor, partial curve]	–
Cc1[nH]n(-c2ccccc2)c(=O)c1/C=N/NC(=O)C(C)C	inconclusive: 17.7 µM [inhibitor, single point]	–
O=C(CCc1nc(-c2ccccc2F)no1)NCCN1CCc2ccccc2C1	inconclusive: 31.6 µM [inhibitor, single point]	–
Cc1ccc2nc3c(cc(C(N)=S)c(=N)n3CCCOC(C)C)c(=O)n2c1	inconclusive: 20 µM [inhibitor, single point]	–
NN1C(=O)/C(=C\c2ccco2)SC1=S	active: 6.29 µM	–
O=C(CN1CCN(C(=O)c2ccco2)CC1)N1CCc2[nH]c3ccccc3c2C1	inconclusive: 19.9 µM [inhibitor, partial curve]	–
C1=C(N2CCOCC2)/C(=C/c2nc3ccccc3[nH]2)CC1	inconclusive: 7.92 µM [inhibitor, partial curve]	–
